Results: patent US20260272979A1 (CHINEO MEDICAL TECHNOLOGY, published 2026)

What was measured:
[1] = target: T1, PD-L1 fuse-expressed with an Fc derived from human IgG1 (human, UniProt Q9NZQ7 part only); assay: SPR Biacore T200
T1 construct: Bought reagent; also called PD-L1-Fc; hPD-L1-Fc; not shown: Fc of human IgG1

[2] = target: T2, PD-L2 fuse-expressed with an Fc derived from human IgG1 (human, UniProt Q9BQ51 20-219, limits assumed); assay: SPR Biacore T200
T2 construct: Bought reagent; also called hPD-L2-Fc; not shown: Fc of human IgG1
T2 sequence (looked up): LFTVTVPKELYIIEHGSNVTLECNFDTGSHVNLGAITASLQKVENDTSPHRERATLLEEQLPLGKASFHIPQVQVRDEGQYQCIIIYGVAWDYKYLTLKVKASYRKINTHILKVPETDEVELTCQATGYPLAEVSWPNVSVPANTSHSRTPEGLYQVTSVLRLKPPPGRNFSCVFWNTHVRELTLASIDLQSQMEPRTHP

[3] = target: T1, PD-L1 fuse-expressed with an Fc derived …; assay: SPR Biacore T200; PD1-RFc mobile phase
[4] = target: T2, PD-L2 fuse-expressed with an Fc derived …; assay: SPR Biacore T200; PD1-RFc mobile phase

T1 sequence (Q9NZQ7 19-239 limits assumed): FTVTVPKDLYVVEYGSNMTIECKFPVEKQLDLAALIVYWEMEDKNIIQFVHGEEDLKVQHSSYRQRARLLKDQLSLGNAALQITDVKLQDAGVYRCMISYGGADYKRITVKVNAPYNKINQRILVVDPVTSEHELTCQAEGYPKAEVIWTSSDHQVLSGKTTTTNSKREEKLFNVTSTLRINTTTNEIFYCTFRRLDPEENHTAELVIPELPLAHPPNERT

- Kd [1]: 8.87 µM
- Kd [2]: 0.000862 µM
- koff [3]: 0.0163 s⁻¹
- kon [3]: 1840 M⁻¹ s⁻¹
- koff [4]: 0.00351 s⁻¹
- kon [4]: 4.07e+06 M⁻¹ s⁻¹
B1: Seq No. 1-RFc (wild-type PD-1 fused to rabbit IgG Fc) (Fc fusion)
chain: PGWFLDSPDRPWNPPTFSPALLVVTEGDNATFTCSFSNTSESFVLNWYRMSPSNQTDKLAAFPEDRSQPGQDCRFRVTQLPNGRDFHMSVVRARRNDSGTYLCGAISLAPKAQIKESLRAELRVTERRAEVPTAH
notes: Amplified with the same primers (P32-For/P32-Rev) as the 155-residue variants; also called PD1-RFc; not shown: rabbit IgG Fc (RFc) of vector pcDNA3.4-RFc
